Measured values taken from the supplement of paper PMC9174493.
The list shows a part of the results. Single values of this set are uncertain. Values with irradiation are relative to irradiated vehicle.

What was measured:
A549-Dual [1] = assay: NF-kB reporter (SEAP) activity, viability-corrected, relative to vehicle (fold change vs vehicle); higher = more activation of STING-IRF / NF-kB immune response reporter; details: 10 µM
A549-Dual [2] = assay: ISRE reporter (Lucia luciferase) activity, viability-corrected, relative to vehicle (fold change vs vehicle); higher = more activation of STING-IRF / NF-kB immune response reporter; details: 10 µM
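For NF-kB reporter (SEAP) activity, viability-corrected, relative to vehicle in this document: viability correction based on the alamar blue assay, with concentrations leaving 10% survival or less dropped.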

Compound	NF-kB reporter (A549-Dual [1]; irradiation: 8 Gy/4 fr)	NF-kB reporter (A549-Dual [1]; irradiation: none)	ISRE reporter (A549-Dual [2]; irradiation: 8 Gy/4 fr)	ISRE reporter (A549-Dual [2]; irradiation: none)
CC(C)CN(CC(O)C(Cc1ccccc1)NC(=O)OC1COC2OCCC12)S(=O)(=O)c1ccc(N)cc1 (stereo unspecified) [Darunavir]	1.02	0.93	1.07	0.883
COC(=O)C1=C(C)NC(C)=C(C(=O)OC)C1c1ccccc1[N+](=O)[O-] [Nifedipine]	1.03	1.11	0.938	0.683
CC(C)(Sc1cc(C(C)(C)C)c(O)c(C(C)(C)C)c1)Sc1cc(C(C)(C)C)c(O)c(C(C)(C)C)c1 [Probucol]	0.663	0.963	0.727	0.827
COC(=O)NC(C(=O)N1C2CCC(C2)C1c1nc2ccc(-c3ccc4c(c3)C(F)(F)c3cc(-c5cnc(C6CCC7(CC7)N6C(=O)C(NC(=O)OC)C(C)C)[nH]5)ccc3-4)cc2[nH]1)C(C)C (stereo unspecified) [Ledipasvir (GS5885)]	0.662	0.9	0.576	1.24
Nc1ccc2cc3ccc(N)cc3nc2c1.Nc1ccc2cc3ccc(N)cc3nc2c1.O=S(=O)(O)O [Proflavine Hemisulfate]		4.42		5.59
O=c1[nH]cnc2[nH]ncc12.[Na+] [Allopurinol Sodium]	0.811	0.81	0.715	0.665
O=C(O)/C=C/C(=O)O [Fumaric acid]	0.978	0.848	0.893	0.562
Cc1c(OCC(F)(F)F)ccnc1CS(=O)c1nc2ccccc2[nH]1 (stereo unspecified) [Dexlansoprazole]	0.53	0.94	0.236	0.374
c1ccc2c(c1)CCCC2C1=NCCN1 (stereo unspecified) [Tetryzoline]	0.779	1.23	1.2	1.35
COC1CC(OC2/C(C)=C/CC3CC(CC4(CCC(C)C(C5CCCCC5)O4)O3)OC(=O)C3C=C(C)/C(=N\O)C4OC/C(=C\C=C\C2C)C34O)OC(C)C1O (stereo unspecified) [Selamectin]		5.22		2.55
Cc1cc(C(C)(C)C)c(O)c(C(C)(C)C)c1 [Butylated hydroxytoluene]	0.792	0.896	0.659	0.777
O=C(O)c1ccc(O)cc1 [4-Hydroxybenzoic acid]	0.695	1.03	0.723	0.84
CCCCCNC(=N)N/N=C/c1c[nH]c2ccc(OC)cc12.O=C(O)/C=C\C(=O)O [Tegaserod Maleate]		1.45		0.512
Cl.NCCc1ccc(O)c(O)c1 [Dopamine HCl]	1.18	1.2	0.96	0.822
Cc1ccccc1C(=O)Nc1ccc(C(=O)N2CCCC(O)c3cc(Cl)ccc32)c(C)c1 (stereo unspecified) [Tolvaptan]	0.666	1.12	0.595	0.907
CN1CCN(c2c(F)cc3c(=O)c(C(=O)O)cn4c3c2OCN4C)CC1 [Marbofloxacin]	0.734	0.927	0.81	0.961
COc1ccc(C(Cl)=C(c2ccc(OC)cc2)c2ccc(OC)cc2)cc1 [Chlorotrianisene]	0.719	0.892	0.72	0.898
Cl.NCCS [Cysteamine HCl]	0.863	0.922	0.879	0.983
CN(Cc1cnc2nc(N)nc(N)c2n1)c1ccc(C(=O)NC(CCC(=O)[O-])C(=O)[O-])cc1.[Na+].[Na+] (stereo unspecified) [Methotrexate disodium]	0.673	1.87	0.183	0.959
COCCc1ccc(OCC(O)CNC(C)C)cc1.COCCc1ccc(OCC(O)CNC(C)C)cc1.O=C(O)C(O)C(O)C(=O)O (stereo unspecified) [Metoprolol Tartrate]	1.03	1.05	1	0.852
CCCCc1oc2ccc(NS(C)(=O)=O)cc2c1C(=O)c1ccc(OCCCN(CCCC)CCCC)cc1.Cl [Dronedarone HCl]	1.25		0.607	
O=C([O-])CC(O)(CC(=O)[O-])C(=O)[O-].O=C([O-])CC(O)(CC(=O)[O-])C(=O)[O-].[BiH6+3].[K+].[K+].[K+].[K+].[K+] [Bismuth Subcitrate Potassium]	1.02	1.07	1.16	1.2
CC(C)(C)CC(C)(C)c1ccc(O)c(Cc2ccc(Cl)cc2Cl)c1 [Clofoctol]		4.68		0.641
CCCC(=O)OC1(C(=O)COC(C)=O)CCC2C3CC(F)C4=CC(=O)C=CC4(C)C3(F)C(O)CC21C (stereo unspecified) [Difluprednate]	0.355	0.742	0.069	0.221
